Results are given in words; binding and its absence hold for the method and conditions named. Binding seen in cells or lysates may run through a third protein. Some results given as binding are weak or reduced against the parent protein; the word gives no strength.
T1: RNF157 (human (endogenous in HEK293T)) (UniProt Q96PX1)
T1 sequence: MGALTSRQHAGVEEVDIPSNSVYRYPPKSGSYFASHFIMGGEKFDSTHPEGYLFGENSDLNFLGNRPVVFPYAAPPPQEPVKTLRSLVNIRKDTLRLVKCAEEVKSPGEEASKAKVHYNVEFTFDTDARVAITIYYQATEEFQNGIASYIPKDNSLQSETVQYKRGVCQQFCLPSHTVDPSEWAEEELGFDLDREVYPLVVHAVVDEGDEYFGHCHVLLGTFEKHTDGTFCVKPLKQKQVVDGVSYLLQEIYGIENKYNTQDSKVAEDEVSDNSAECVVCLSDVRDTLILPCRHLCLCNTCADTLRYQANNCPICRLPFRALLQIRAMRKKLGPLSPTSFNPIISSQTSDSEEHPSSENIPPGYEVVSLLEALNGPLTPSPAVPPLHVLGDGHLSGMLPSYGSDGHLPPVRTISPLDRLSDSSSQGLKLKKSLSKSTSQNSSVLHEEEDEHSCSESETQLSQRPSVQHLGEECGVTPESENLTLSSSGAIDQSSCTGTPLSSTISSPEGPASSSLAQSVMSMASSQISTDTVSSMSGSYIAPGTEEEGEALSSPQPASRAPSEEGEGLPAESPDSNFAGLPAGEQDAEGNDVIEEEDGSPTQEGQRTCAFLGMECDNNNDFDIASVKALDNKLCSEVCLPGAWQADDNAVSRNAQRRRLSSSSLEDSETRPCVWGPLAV

Sequences of proteins named here, by UniProt entry; tags and fusion partners are left off.
UniProt O14646: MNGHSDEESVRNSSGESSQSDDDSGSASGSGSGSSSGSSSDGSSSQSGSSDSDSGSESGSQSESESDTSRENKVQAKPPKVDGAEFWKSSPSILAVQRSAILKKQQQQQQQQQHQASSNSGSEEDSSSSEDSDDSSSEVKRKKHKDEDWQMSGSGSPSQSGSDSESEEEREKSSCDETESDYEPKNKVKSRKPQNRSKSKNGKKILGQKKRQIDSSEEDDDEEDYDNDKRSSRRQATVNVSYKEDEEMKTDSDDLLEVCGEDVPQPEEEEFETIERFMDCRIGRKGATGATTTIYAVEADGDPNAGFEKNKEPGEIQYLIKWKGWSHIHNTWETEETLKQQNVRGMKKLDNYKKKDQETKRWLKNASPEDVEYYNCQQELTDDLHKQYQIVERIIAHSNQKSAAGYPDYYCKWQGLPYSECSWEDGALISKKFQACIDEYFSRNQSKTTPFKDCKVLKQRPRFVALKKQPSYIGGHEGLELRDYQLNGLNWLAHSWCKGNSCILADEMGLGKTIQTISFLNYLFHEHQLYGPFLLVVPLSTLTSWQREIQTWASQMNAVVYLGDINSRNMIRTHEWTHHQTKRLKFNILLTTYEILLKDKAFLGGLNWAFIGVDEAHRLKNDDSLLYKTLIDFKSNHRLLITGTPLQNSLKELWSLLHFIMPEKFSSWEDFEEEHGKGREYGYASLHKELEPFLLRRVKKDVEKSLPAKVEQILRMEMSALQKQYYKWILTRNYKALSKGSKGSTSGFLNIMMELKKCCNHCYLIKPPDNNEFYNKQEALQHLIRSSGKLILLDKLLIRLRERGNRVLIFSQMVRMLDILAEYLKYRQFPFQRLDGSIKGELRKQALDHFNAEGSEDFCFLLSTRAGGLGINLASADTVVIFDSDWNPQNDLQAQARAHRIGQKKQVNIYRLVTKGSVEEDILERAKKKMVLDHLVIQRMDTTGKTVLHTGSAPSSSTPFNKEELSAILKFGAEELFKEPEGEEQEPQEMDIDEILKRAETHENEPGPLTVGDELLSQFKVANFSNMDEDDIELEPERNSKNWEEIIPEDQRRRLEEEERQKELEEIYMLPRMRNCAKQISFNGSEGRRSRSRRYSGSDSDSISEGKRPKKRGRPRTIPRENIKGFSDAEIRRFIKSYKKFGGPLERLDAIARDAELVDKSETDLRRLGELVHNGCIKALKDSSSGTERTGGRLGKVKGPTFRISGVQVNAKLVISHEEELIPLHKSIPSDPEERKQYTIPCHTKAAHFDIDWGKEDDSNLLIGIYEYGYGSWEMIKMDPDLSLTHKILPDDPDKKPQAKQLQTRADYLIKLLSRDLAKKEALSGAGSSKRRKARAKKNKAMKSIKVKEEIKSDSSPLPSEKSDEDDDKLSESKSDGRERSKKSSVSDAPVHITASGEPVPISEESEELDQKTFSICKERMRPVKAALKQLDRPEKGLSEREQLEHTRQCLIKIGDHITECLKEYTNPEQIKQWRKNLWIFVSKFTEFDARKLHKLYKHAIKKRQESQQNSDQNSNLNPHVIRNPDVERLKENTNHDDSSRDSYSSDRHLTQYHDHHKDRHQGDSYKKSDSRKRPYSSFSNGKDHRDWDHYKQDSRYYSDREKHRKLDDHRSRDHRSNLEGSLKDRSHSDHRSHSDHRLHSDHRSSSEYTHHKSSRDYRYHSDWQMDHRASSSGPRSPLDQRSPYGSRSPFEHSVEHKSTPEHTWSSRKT
UniProt P51116: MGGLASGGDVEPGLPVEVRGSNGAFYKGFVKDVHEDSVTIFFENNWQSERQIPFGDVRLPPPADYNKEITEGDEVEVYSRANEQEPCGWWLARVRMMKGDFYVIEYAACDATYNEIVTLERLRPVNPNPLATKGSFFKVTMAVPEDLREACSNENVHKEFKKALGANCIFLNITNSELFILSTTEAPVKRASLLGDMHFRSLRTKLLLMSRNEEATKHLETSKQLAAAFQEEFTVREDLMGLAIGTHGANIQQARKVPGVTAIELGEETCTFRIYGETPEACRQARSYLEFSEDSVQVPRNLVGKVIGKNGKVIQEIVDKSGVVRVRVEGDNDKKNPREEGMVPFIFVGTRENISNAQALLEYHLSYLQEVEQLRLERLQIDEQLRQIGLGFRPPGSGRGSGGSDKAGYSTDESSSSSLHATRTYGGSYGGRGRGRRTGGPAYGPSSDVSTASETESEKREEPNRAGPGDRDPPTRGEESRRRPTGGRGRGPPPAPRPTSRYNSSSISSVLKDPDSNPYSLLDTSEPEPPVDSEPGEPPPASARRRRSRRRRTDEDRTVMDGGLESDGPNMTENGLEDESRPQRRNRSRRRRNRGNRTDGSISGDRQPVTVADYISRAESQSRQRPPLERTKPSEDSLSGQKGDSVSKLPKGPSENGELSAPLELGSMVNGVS
UniProt Q13547: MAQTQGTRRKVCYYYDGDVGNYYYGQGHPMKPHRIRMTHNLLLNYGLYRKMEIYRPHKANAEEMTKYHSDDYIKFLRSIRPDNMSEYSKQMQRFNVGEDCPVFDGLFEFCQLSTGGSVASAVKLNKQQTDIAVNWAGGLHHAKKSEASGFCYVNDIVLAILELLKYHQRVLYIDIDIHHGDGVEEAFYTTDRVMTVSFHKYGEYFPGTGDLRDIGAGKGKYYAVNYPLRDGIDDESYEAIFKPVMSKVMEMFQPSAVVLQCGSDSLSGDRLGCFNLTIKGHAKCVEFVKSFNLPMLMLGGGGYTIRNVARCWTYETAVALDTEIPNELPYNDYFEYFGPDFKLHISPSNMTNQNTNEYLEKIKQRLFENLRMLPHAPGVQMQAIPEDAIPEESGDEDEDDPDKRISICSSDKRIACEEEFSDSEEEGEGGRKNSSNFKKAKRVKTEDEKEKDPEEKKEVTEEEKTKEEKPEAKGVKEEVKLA

T2: RNF157 (human (endogenous in THP-1-derived M0 macrophages)) (UniProt Q96PX1)
T2 sequence: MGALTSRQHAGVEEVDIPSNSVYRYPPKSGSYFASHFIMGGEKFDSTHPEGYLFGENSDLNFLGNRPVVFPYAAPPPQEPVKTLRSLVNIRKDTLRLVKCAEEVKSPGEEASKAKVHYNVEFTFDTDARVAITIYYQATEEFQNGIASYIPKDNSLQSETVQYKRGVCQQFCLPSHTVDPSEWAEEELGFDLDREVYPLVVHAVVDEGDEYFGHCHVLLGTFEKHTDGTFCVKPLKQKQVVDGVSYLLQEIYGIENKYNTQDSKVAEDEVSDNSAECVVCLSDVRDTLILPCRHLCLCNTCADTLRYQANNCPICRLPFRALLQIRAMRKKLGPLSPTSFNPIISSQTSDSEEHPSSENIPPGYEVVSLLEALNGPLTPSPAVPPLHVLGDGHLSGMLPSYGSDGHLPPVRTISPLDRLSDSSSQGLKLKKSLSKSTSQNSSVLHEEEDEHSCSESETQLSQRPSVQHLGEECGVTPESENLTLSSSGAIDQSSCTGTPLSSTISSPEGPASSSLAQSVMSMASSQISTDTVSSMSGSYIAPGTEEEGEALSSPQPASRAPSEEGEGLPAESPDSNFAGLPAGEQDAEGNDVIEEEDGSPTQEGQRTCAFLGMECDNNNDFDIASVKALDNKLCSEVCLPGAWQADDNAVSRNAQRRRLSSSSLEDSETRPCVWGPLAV


Tests used:
[1] = molecular target: T1, RNF157 (human (endogenous in HEK293T)); experiment: co-IP; HEK293T lysate; precipitated with anti-RNF157 (anti-IgG as control) and protein A/G beads, 4 hours at 4°C; western blot of the candidates
[2] = molecular target: T2, RNF157 (human (endogenous in THP-1-derived M0 macrophages)); experiment: co-IP; M0 macrophage (PMA-treated THP-1) lysate; precipitated with anti-RNF157 (anti-IgG as control) and protein A/G beads, 4 hours at 4°C; western blot of the candidates

Row | binding [1] | binding [2] | Molecule
1 | binds weakly | – | CHD1 (from UniProt O14646 1-1710)
2 | binds | binds | FXR2 (from UniProt P51116 1-673)
3 | binds | binds | HDAC1 (from UniProt Q13547 1-482)
4 | no binding | – | PLRG1 (protein, UniProt O43660 1-514) MVEEVQKHSVHTLVFRSLKRTHDMFVADNGKPVPLDEESHKRKMAIKLRNEYGPVLHMPTSKENLKEKGPQNATDSYVHKQYPANQGQEVEYFVAGTHPYPPGPGVALTADTKIQRMPSESAAQSLAVALPLQTKADANRTAPSGSEYRHPGASDRPQPTAMNSIVMETGNTKNSALMAKKAPTMPKPQWHPPWKLYRVISGHLGWVRCIAVEPGNQWFVTGSADRTIKIWDLASGKLKLSLTGHISTVRGVIVSTRSPYLFSCGEDKQVKCWDLEYNKVIRHYHGHLSAVYGLDLHPTIDVLVTCSRDSTARIWDVRTKASVHTLSGHTNAVATVRCQAAEPQIITGSHDTTIRLWDLVAGKTRVTLTNHKKSVRAVVLHPRHYTFASGSPDNIKQWKFPDGSFIQNLSGHNAIINTLTVNSDGVLVSGADNGTMHLWDWRTGYNFQRVHAAVQPGSLDSESGIFACAFDQSESRLLTAEADKTIKVYREDDTATEETHPVSWKPEIIKRKRF

From publication PMC9573993
